# Experimental data from the supplement of paper PMC9446081.
# Among all 39,000 compounds or so, about 220 (0.56%) showed activity. The list shows a part of the results.
# Tested on: Escherichia coli K-12 BW25113
# Assay: relative growth (OD600 normalised to plate interquartile mean) (fraction); higher = less growth inhibition, active = 0.2 or less
# Conditions: 50 µM; LB; incubation time: overnight (16-24 h)
# 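Note: static incubation at 37 °C against the wild-type strain, values averaged over two biological replicates.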
row,Structure (SMILES),relative growth
1,N[C@@H]1CCCN(c2c(Br)cnc3[nH]cc(NC(=O)C4CC4)c23)C1,inactive: 0.878
2,COc1cccc(C#Cc2ccc3c(c2)O[C@H](CN(C)C(=O)c2ccccn2)[C@@H](C)CN([C@H](C)CO)S3(=O)=O)c1,inactive: 1.04
3,COc1ccc(S(=O)(=O)Nc2ccc3c(c2)C(=O)N([C@@H](C)CO)C[C@@H](C)[C@@H](CN(C)S(C)(=O)=O)OCCCC[C@@H](C)O3)cc1,inactive: 0.982
4,O=c1cc(-c2cc(O)c(O)c(O)c2)oc2cc(O)cc(O)c12,inactive: 0.994
5,C[C@@H]1CN([C@H](C)CO)C(=O)c2cc(NS(=O)(=O)c3ccc(F)cc3)ccc2O[C@H]1CN(C)S(=O)(=O)c1ccc(F)cc1,inactive: 1.03
6,COc1ccc(S(=O)(=O)N(C)C[C@H]2Oc3ccc(NS(=O)(=O)c4cccs4)cc3C(=O)N([C@@H](C)CO)C[C@@H]2C)cc1,inactive: 1.02
7,CCOn1c(=O)c(=O)n(OC)c2ccccc21,inactive: 1.01
8,CC(=O)N[C@@H](C(=O)O)C(C)(C)S[NH2+][O-],inactive: 1.02
9,O=C(C[C@@H]1CC[C@H](NC(=O)CN2CCOCC2)[C@@H](CO)O1)NCc1cccc(F)c1,inactive: 1.01
10,C[C@H]1CN([C@@H](C)CO)C(=O)Cc2cc(NC(=O)Nc3ccc(F)cc3)ccc2O[C@H]1CN(C)Cc1ccc(C(=O)Nc2ccccc2N)cc1,inactive: 1.01
11,COc1ccc(NC(=O)Nc2ccc3c(c2)C(=O)N([C@H](C)CO)C[C@@H](C)[C@@H](CN(C)CC2CCCCC2)O3)cc1,inactive: 1.02
12,Cl.Nc1c(Br)cc(Br)cc1CNC1CCC(O)CC1 (configuration not stated),inactive: 1.09
13,CC(C)c1ccc(/C=C/C(=O)Nc2nc3ccccc3s2)cc1,inactive: 1.02
14,COc1cccc(S(=O)(=O)Nc2ccc3c(c2)[C@@H]2C[C@@H](CC(=O)NCC(F)(F)F)O[C@@H](CO)[C@@H]2O3)c1,inactive: 1.01
15,O=C(C[C@H]1CC[C@H]2[C@@H](COC[C@H](O)CN2C(=O)Nc2cccc(F)c2)O1)NCc1ccccc1Cl,inactive: 0.892
16,CSc1n[nH]c(=O)c2cc(C)nn12,inactive: 0.992
17,CC(C)(C)OC(=O)NC(=NCCn1cc(-c2cccc(/C=C/C(=O)NO)c2)nn1)NC(=O)OC(C)(C)C,inactive: 1.04
18,C[C@@H]1CN([C@H](C)CO)C(=O)c2cc(NC(=O)Nc3ccc(C(F)(F)F)cc3)ccc2O[C@@H](C)CCCCO[C@H]1CN(C)S(=O)(=O)c1ccccc1,inactive: 1.04
19,C[C@H]1CN([C@@H](C)CO)C(=O)c2cccc(NC(=O)c3cnccn3)c2O[C@@H]1CN(C)Cc1ccncc1,inactive: 0.997
20,NC(=O)CSc1nnnn1-c1ccccc1,inactive: 1.02
21,C[C@@H]1CCCCO[C@H](CN(C)C(=O)C2CCCCC2)[C@@H](C)CN([C@@H](C)CO)C(=O)c2cc(NC(=O)Nc3cccc4ccccc34)ccc2O1,inactive: 0.986

row,Structure (SMILES),relative growth
1,COc1ccc(S(=O)(=O)N(C)C[C@@H]2OCCCC[C@@H](C)Oc3ccc(NC(=O)CCC(F)(F)F)cc3C(=O)N([C@@H](C)CO)C[C@@H]2C)cc1,inactive: 1.03
2,COCC#Cc1ccc2c(c1)O[C@@H](CN(C)C(=O)COC)[C@H](C)CN([C@H](C)CO)S2(=O)=O,inactive: 0.99
3,CC(C)NC(=O)N(C)C[C@@H]1Oc2ccc(NS(=O)(=O)c3ccc(F)cc3)cc2C(=O)N([C@H](C)CO)C[C@@H]1C,inactive: 0.982
4,CN(C)CC(=O)N[C@@H]1CC[C@H](CC(=O)NCCN2CCCCC2)O[C@@H]1CO,inactive: 0.991
5,CN(C)C(=O)C[C@@H]1C=C[C@@H](NC(=O)C2CC2)[C@@H](CO)O1,inactive: 0.99
6,COCC(=O)N1C[C@H](C)[C@@H](OC)CN(C)C(=O)c2cc(NC(=O)c3cc(C)on3)ccc2OC[C@@H]1C,inactive: 0.987
7,COc1ccc(N2C(=O)C[C@@H](N3CCCN([C@H]4CC(=O)N(c5ccc(OC)cc5)C4=O)CC3)C2=O)cc1,inactive: 1.01
8,COc1c(C)c2c(c(O)c1CC=C(C)CCC(=O)O)C(=O)OC2,inactive: 1.12
9,Cc1ccc(S(=O)(=O)N(C)C[C@H]2Oc3c(NC(=O)C4CC4)cccc3C(=O)N([C@@H](C)CO)C[C@H]2C)cc1,inactive: 0.995
10,C[C@H](CO)N1C[C@H](C)[C@H](CN(C)C(=O)Nc2ccc(N3CCCCC3)cc2)OCc2cnnn2CCCC1=O,inactive: 1.02
11,Cc1noc(C)c1S(=O)(=O)N(C)C[C@@H]1OCCCC[C@@H](C)Oc2ccc(NC(=O)Nc3cccc4ccccc34)cc2C(=O)N([C@H](C)CO)C[C@H]1C,inactive: 1.05
12,C[C@H](CO)N1C[C@H](C)[C@@H](CN(C)S(=O)(=O)c2cn(C)cn2)Oc2c(NS(=O)(=O)c3cccs3)cccc2C1=O,inactive: 0.992
13,CC(C)Oc1cccc(-n2c(CCc3c[nH]c4ccc(Br)cc34)nc3ccccc3c2=O)c1,inactive: 1.03
14,O=C(N[C@@H]1CC[C@H](CCNS(=O)(=O)c2ccccc2)O[C@@H]1CO)c1cnccn1,inactive: 0.983
15,COc1ccc2c3c(n(c2c1)C)[C@@H](CO)N(C[C@]13CN(C1)C(=O)c1ccncc1)C(=O)C1CCOCC1,inactive: 0.956
16,C[C@@H]1CCCCO[C@@H](CN(C)C(=O)Nc2ccc(F)cc2)[C@@H](C)CN([C@H](C)CO)C(=O)c2cc(NC(=O)c3ccccc3)ccc2O1,inactive: 1.01
17,CN1C(=O)c2cc(NC(=O)Cc3cccs3)ccc2OC[C@H]2O[C@H](CC(=O)NCCCN3CCOCC3)CC[C@H]21,inactive: 0.98
18,O=C(C[C@@H]1C[C@H]2c3cc(NC(=O)Nc4ccc(C(F)(F)F)cc4)ccc3O[C@H]2[C@@H](CO)O1)NC1CCCCC1,inactive: 1.01
19,O=C(CCCCCNC(=O)OCc1ccc(CO[C@H]2C[C@@H](C3CCCCC3)C=C(C(=O)N3CCN(Cc4ccc5c(c4)OCO5)CC3)O2)cc1)NO,inactive: 0.936
20,Clc1ccc(COC(Cn2ccnc2)c2ccc(Cl)cc2Cl)c(Cl)c1.O=[N+]([O-])O (configuration not stated),inactive: 0.98
21,N[C@H]1CC[C@H]2CN(Cc3ccc(Cl)c([N+](=O)[O-])c3)C[C@H]21,inactive: 0.972
